These results are taken from PubChem BioAssay AID1362 (SRMLSC, 2008).

Some of the results follow. These are further read-outs of the screen, such as a control signal, another cell line or another target. No call is given for them. The list favours compounds with an active or inconclusive main result.

The nature of this experiment: growth inhibition of WT strain, primary screen, mitochondrial fusion inhibitor project, WT and mutant strains, chemical genetic (AID 1362). Note: tested in S. cerevisiae. As to conditions: mitochondrial fusion phenotypic screen, at 10 µM.
For orientation: inhibition means the drop in the measured response relative to a control, in per cent. With `COC(=O)CCC(=O)Nc1sc(Cc2ccccc2)c(C)c1C(N)=O`, the inhibition came out at 31.4%.
Take `CC(C)C(c1nnnn1C(C)(C)C)N1CCC(Cc2ccccc2)CC1` (centres undefined): the inhibition was -1.74%.
As for `CCOC(=O)Nc1nc(-c2ccccc2)c(C(=O)c2ccc(Cl)cc2)s1`, the inhibition stood at 27.9%.
For the compound `Cc1[nH]c2ccc(F)cc2c1CCN(Cc1ccco1)C(=S)NC(C)(C)C`, the inhibition stood at 9.14%.
Regarding `Cc1ccc(S(=O)(=O)N2c3cc(C)ccc3OCC2C(C)(C)C)cc1` (centres undefined), the inhibition is 54.9%.
As for `Cc1ccc(NC2=C(NC(=O)c3ccccc3)C(=O)c3ccccc3C2=O)cc1Cl`, the inhibition turned out to be 23.3%.
On to `C[n+]1c2n(c3ccccc31)N=C(c1ccc(-c3ccccc3)cc1)CS2`, for which the inhibition was 77.5%.
For the compound `Cc1cc(Cl)ccc1OCC(=O)N1CCCN(C(=O)COc2ccc(Cl)cc2C)CC1`, the inhibition turned out to be 27.2%.
On to `COc1ccc(-c2noc(-c3ccccc3-c3ccccc3)n2)cc1OC`, for which the inhibition is 5.13%.
As to `Cc1ccc(CSc2nnc(-c3ccccc3N)c(=O)[nH]2)cc1`, the inhibition was 56.5%.
Then `O=[N+]([O-])c1ccccc1/C=N/n1c(C2CCCCC2)n[nH]c1=S`, with -2.49%; and `CCCN(CCC)c1nc2ccccc2nc1C(C#N)C(=O)OC(C)COC` (centres undefined), with 30.9%.
The figure for `Cc1cc(NCCCn2ccnc2)n2ncc(-c3ccc(Cl)cc3)c2n1` is -46.6%; for `O=S(=O)(NCCSCc1ccc(Cl)cc1Cl)c1ccc2c(c1)OCCO2` it is 25.8%; for `Oc1ccc(/C=N/Nc2cc(N3CCCC3)nc(N3CCCC3)n2)cc1` it is 56.7%.
On to `C#C[C@]1(O)CC[C@H]2[C@@H]3CCc4cc(OC5CCCC5)ccc4[C@H]3CC[C@@]21C`, for which the inhibition was determined as 60.2%.
Turning to `O=C(NC(=S)NC1CCCc2ccccc21)c1ccco1` (centres undefined), the inhibition was 61.4%.
For `S=C(Nc1ccc(Cl)c(Cl)c1)NC1CCN(Cc2ccccc2)CC1`, the inhibition was found to be 73.4%.
On to `COc1cccc(N2CCN(c3ncnc4c3[nH]c3ccccc34)CC2C)c1` (centres undefined), for which the inhibition came out at 30.5%.
Take `Clc1ccc(-c2csc3ncnc(N4CCc5ccccc5C4)c23)cc1`: the inhibition was -8.84%.
As for `O=c1c2ccccc2c(-c2ccccc2)nn1Cc1c(Cl)cccc1Cl`, the inhibition worked out at 29%.
Regarding `C=CCN(CC=C)c1nc2ccccc2nc1C(C#N)C(=O)OCCOC` (centres undefined), the inhibition came to 42.2%.
Consider `Brc1ccc(C2=CC(c3cccs3)n3ncnc3N2)cc1` (centres undefined), for which the inhibition was determined as 45.1%.
`CC1=NN(c2nc3ccccc3[nH]2)C(=O)/C1=C/N(C)C`: the inhibition was found to be 81.7%.
As for `CC(=O)Oc1c(Cl)cc(Cl)cc1/C=C/c1ccc2ccccc2n1`, the inhibition was 42.2%.
Then `Cc1ccc2nc(N(CCCN(C)C)C(=O)c3sc4ccccc4c3Cl)sc2c1`, with 75%; and `O=C(N1CCOCC1)N1CCN(C(c2ccccc2)c2ccccc2)CC1`, with -2.64%.
For `Cc1c(Cl)cccc1NC(=S)NCC1COc2ccccc2O1` (centres undefined), the inhibition came to 58.9%.
With `COc1ccc(-c2nc(-c3ccccn3)no2)cc1`, the inhibition came to 52.5%.
Take `COc1cccc(OC)c1C(=O)NC(C)C12CC3CC(CC(C3)C1)C2` (centres undefined): the inhibition was 57.2%.
Take `Cc1cc(Cl)ccc1OCC(=O)Nc1nc(-c2cccs2)cs1`: the inhibition was -4.43%.
Then `O=C(CSCC(=O)N1CCCCC1)Nc1nc(-c2ccccc2)c(-c2ccccc2)s1`, with -2.61%.
The figure for `CC(C)OC(=O)C(=O)NNc1ccccc1` is 61.8%.
For the compound `CCOc1ccc(-c2nc(N)ncc2Oc2ccccc2Br)c(O)c1`, the inhibition is 16.1%.
As to `COc1ccc(C2=NN(C(=O)c3cccs3)C(c3ccccc3O)C2)cc1` (centres undefined), the inhibition was 17.7%.
Consider `C=CCOc1ccc2ccccc2c1CNCCCN1CCOCC1`, for which the inhibition was -8.76%.
On to `COc1ccc(NC(=O)c2cc(-c3ccccc3Cl)no2)cc1`, for which the inhibition worked out at 7.14%.
On to `CCOCCCNC(=S)N1CCCN(c2nc3c(C)c(C)ccc3cc2C#N)CC1`, for which the inhibition amounted to 18.5%.
As to `CCOc1ccc(S(=O)(=O)N2CCN(C(=O)c3cc4c(s3)CCCC4)CC2)cc1`, the inhibition came to 3.08%.
`Cc1cc(C)c(-c2noc(C(=O)OC(C)(C)C)c2C(=O)OC(C)(C)C)c(C)c1`: the inhibition is -3.23%.
On to `C(=N\Nc1nc(Nc2ccccc2)nc(Nc2ccccc2)n1)/c1cccnc1`, for which the inhibition came out at 21.4%.
Regarding `CC1CN(c2ncnc3c2c(-c2ccccc2)cn3-c2ccc(F)cc2)CC(C)O1` (centres undefined), the inhibition was -16.1%.
As for `CC1(C)CC(=O)c2c(O)cc(OCc3ccc([N+](=O)[O-])cc3)cc2O1`, the inhibition came out at 2.05%.
`COc1ccc(-c2[nH]c(-c3ccc4c(c3)OCO4)nc2-c2ccccc2)cc1`: the inhibition is 33.5%.
For the compound `NC(=O)c1cc(Br)cc2c3c([nH]c12)CCCC3`, the inhibition came to 49.3%.
Then `CC1(C)Cc2ccccc2-c2nnc(SCC(=O)N3CCN(c4ccccc4)CC3)n21`, with 38.4%.
Regarding `C/C(=N\NC(N)=S)C1C2C3CC4C5CC(C42)C1C53` (centres undefined), the inhibition is 64.5%.
Then `CCCCNC(=S)N1CCN(c2ccccc2Cl)CC1`, with 45.9%; and `Cc1ccccc1Nc1c(-c2ccccn2)nc2ccccn12`, with 54.3%.
As to `C/C(=N\Nc1nc2c(s1)CCCC2)c1ccc(Cl)cc1`, the inhibition turned out to be 67.2%.
In the case of `Cc1ccc(-n2c(N)c(C#N)c(-c3ccccc3)c(C#N)c2=O)cc1`, the inhibition is -4.45%.
For `COc1ccccc1-n1c(=O)oc2ccc(Cl)cc2c1=O`, the inhibition was 75%.
In the case of `Cc1onc(-c2ccccc2Cl)c1C(=O)Nc1nnc(-c2ccc(Cl)cc2Cl)s1`, the inhibition was 33.1%.
Take `Cc1cc(Nc2ccccc2)nc2cc(O)ccc12`: the inhibition was 56.9%.
For `CC(C)c1cc(C(N)=O)c(NC(=O)c2cccc(COc3ccc(Cl)cc3)c2)s1`, the inhibition turned out to be 19.8%.
The figure for `Cc1cccc(-c2nnc3sc(-c4ccccc4C)nn23)c1` is 40.1%.
In the case of `COC(=O)Cc1ccc(NC(=S)NCCSc2ccc(C)cc2)cc1`, the inhibition was 33.1%.
As to `COc1ccccc1NC(=S)N(Cc1cccs1)C1CCCC1`, the inhibition was 42%.
As to `O=C(c1ccc2[nH]c3c(c2c1)CCCC3)N1CCN(c2ccc(F)cc2)CC1`, the inhibition came to 49.9%.
Turning to `COc1ccc(Sc2cc(C(F)(F)F)nc(-c3ccccn3)n2)cc1`, the inhibition was found to be 56.3%.
The figure for `CCCC(C)NC(=S)Nc1cc(C)cc(C)c1` (centres undefined) is 69.6%; for `CC(C)C(=O)NC(=S)Nc1ccc(S(=O)(=O)N(C)Cc2ccccc2)cc1` it is 29.9%.
With `Cc1ccc2sc(N(CCCN(C)C)C(=O)CN3C(=O)c4ccccc4C3=O)nc2c1C`, the inhibition was 87.7%.
For `COc1ccc(C2C=C(C34CC5CC(CC(C5)C3)C4)NC(=S)N2)cc1` (centres undefined), the inhibition came out at 42.8%.
Regarding `CCc1nn(C(C)C(=O)N2CCN(Cc3ccccc3)CC2)c(=O)c2cc3occc3n12` (centres undefined), the inhibition was 3.04%.
Then `Cc1nonc1C1CCCN1Cc1cn[nH]c1-c1ccc(-c2ccccc2)cc1` (centres undefined), with 26.7%.
Then `Cc1oc(-c2ccccc2)[n+]([O-])c1C`, with -3.32%; and `Cc1nc2c(-c3ccc(F)cc3)c(C)nn2c(C)c1CCC(=O)N1CCC(Cc2ccccc2)CC1`, with 22.4%.
Then `COc1cc2c(cc1NC(=O)C(C)NCc1ccccc1)oc1ccccc12` (centres undefined), with 32.7%.
